# Reference: PubChem BioAssay (NCATS)
# Several values for one entry are separate records, joined by “and”; a condition that tells them apart may be missing. Equal values may be shown once. Inconclusive results, whose numbers are uncertain, are shown with a selection of clear calls. Where the call is inconclusive, the potency comes from a doubtful curve fit. Activity calls are given as the source filed them. Calls come from the whole dose curve; as a rule, active = well fitted cell-killing curve with a large enough effect; inconclusive = small, poorly fitted or top-dose-only effect; inactive = no such curve, though single readings can be large or run the other way.
# Assay: qHTS of pediatric cancer cell lines to identify multiple opportunities for drug repurposing: Primary screen for SK-N-SH cells (AID 1347098); note: nearly all actives have a fitted effect of over 65% in size
# Details: SK-N-SH viability, CellTiter-Glo luminescence, 48 h; series mostly up to 57 µM
# Description: Drug repurposing or repositioning has been offered as a strategy for drug development in oncology programs. This approach has special potential for childhood cancers and other rare or orphan diseases, where the expected return on new drug development has been a disincentive to pharmaceuticals.
# In this project we exploit the poly-pharmacology of drugs to discover new indications via phenotypic screening of a panel of 19 well-characterized cell lines derived from solid tumors seen in children and adolescents. The goal is to identify approved drugs with previously unrecognized anticancer properties that has the potential to reveal new mechanisms and biological processes involved in carcinogenesis or drug resistance. We employed a titration-based paradigm (quantitative high-throughput screening or qHTS), where all compounds were tested at multiple concentrations for their effect on cell viability. Concentration-response curves (CRCs) were derived directly from the primary screen, and both potency and efficacy values were used to identify compounds with robust bioactivity profiles. We screened the NIH Chemical Genomics Center (NCGC) Pharmaceutical Collection (NPC) and Mechanism Interrogation Plate (MIPE) small molecule collections of approved and investigational compounds against these cell lines; and measured metabolically active cells after 48 hours of compound treatment as a proxy for cell viability.
# Assay Submitter: Nathalia J. Martinez, National Center for Advancing Translational Sciences, National Institutes of Health, Rockville, MD, USA; email: natalia.martinez@nih.gov
# [1] Shen, M et al. Quantitative high-throughput phenotypic screening of pediatric cancer cell lines identifies multiple opportunities for drug repurposing. Oncotarget 2017 Dec 19;9(4):4758-4772. PMID 29435139.
# The cells were obtained from University of North Carolina (UNC), Pediatric Preclinical Testing Program (PPT), and Coriell Institute (CI).
# qHTS cell viability assay:
# Cells were assayed in growth media at a density of 500-1,000 cells/well. Five microliters of cells were dispensed into 1,536-well, white, solid-bottom, TC-treated plates (Greiner Bio One) using a multidrop dispenser and incubated at 37 degrees C, 5% CO2, under a humidified atmosphere for 5 hours. Twenty-three nanoliters of compounds and controls (neutral control DMSO or positive control bortezomib at final concentration of 2.3 µM) were subsequently transferred by Kalypsys pintool. For primary screens, the MIPE collection was tested at 11-point dilutions (final concentrations range from 0.78 nM to 46 µM) and the NPC collection at 8-point dilutions (final concentrations range from 0.59 nM to 46 µM). Compounds tested in follow-up screens were assayed at 11-point dilutions. Cells were incubated for 48 hours, followed by addition of 3 µL of CellTiter-Glo (Promega). After a 15 min incubation at room temperature, samples were analyzed for luminescence intensity using a ViewLux High-throughput CCD imager equipped with clear filters.
# Potency is the fitted concentration of half-maximal effect; tags give direction and shape of the fitted curve.
row,SMILES,Potency
1,OCCN1CCN(CCCN2c3ccccc3Sc3ccc(Cl)cc32)CC1,active: 8.64 µM
2,CC(C)n1cnc2c(NCCc3ccc(O)cc3)nc(-c3csc4ccccc34)nc21,active: 4.29 µM
3,CCCCC1(COC(=O)CCC(=O)O)C(=O)N(c2ccccc2)N(c2ccccc2)C1=O,inactive
4,Oc1ccc(Cl)cc1Sc1cc(Cl)ccc1O,"inconclusive: 8.64 µM [cytotoxic, partial curve, poor fit]"
5,Oc1c(I)cc(Cl)c2cccnc12,active: 27.3 µM
6,O=c1c(-c2ccccc2)c1-c1ccccc1,"inconclusive: 5.45 µM [cytotoxic, full curve, poor fit]"
7,CC(C(C)N1CC(=O)NC(=O)C1)N1CC(=O)NC(=O)C1 (stereo not given),inactive
8,Oc1c(Cl)cc(Cl)c2cccnc12,active: 3.86 µM and active: 30.4 µM
9,COc1c2occc2c(OC)c2c(=O)cc(C)oc12,inactive
10,Nc1ccc(C(=O)Nc2cccc(-c3nc(N4CCOCC4)c4oc5ncccc5c4n3)c2)cn1,"inconclusive: 7.64 µM [cytotoxic, partial curve]"
11,Cc1cc(SCc2sc(-c3ccc(C(F)(F)F)cc3)nc2C)ccc1OCC(=O)O,"inconclusive: 24.1 µM [cytotoxic, single point]"
12,Cc1ccc(C(=O)Nc2cccc(C(F)(F)F)c2)cc1-c1ccc2nc(NCCN3CCOCC3)ncc2c1,active: 9.61 µM
13,CCOc1ccc(Cc2nccc3cc(OCC)c(OCC)cc23)cc1OCC,"inconclusive: 30.7 µM [cytotoxic, partial curve, poor fit]"
14,CC1(CN2CCC(n3c(=O)[nH]c4ccccc43)CC2)OCc2ccccc2-n2cccc21 (stereo not given),"inconclusive: 24.1 µM [cytotoxic, partial curve]"
15,C[C@H]1[C@H](O)O[C@@H]2O[C@@]3(C)CC[C@@H]4[C@H](C)CC[C@@H]1[C@@]24OO3,"inconclusive: 24.1 µM [cytotoxic, partial curve]"
16,CN1CCC(COc2cnc(-c3cccc(Cn4nc(-c5cccc(C#N)c5)ccc4=O)c3)nc2)CC1,active: 24.1 µM
17,OC[C@H]1O[C@@H](n2cnc3c(=S)nc[nH]c32)[C@H](O)[C@@H]1O,"inconclusive: 5.45 µM [cytotoxic, single point]"
18,CCOc1cc(C=C2C(=O)N(c3ccccc3)N=C2C)cc(Cl)c1OCC(=O)OC,"inconclusive: 30.4 µM [cytotoxic, single point]"
19,COc1cccc(OC)c1-c1cc(C(=O)NC2(C(=O)O)C3CC4CC(C3)CC2C4)nn1-c1ccnc2cc(Cl)ccc12 (stereo not given),"inconclusive: 24.1 µM [cytotoxic, single point]"
20,O=C1NC(=O)C(c2cnc3ccccn23)=C1c1cn2c3c(cccc13)CN(C(=O)N1CCOCC1)CC2,"inconclusive: 19.2 µM [cytotoxic, partial curve]"

row,SMILES,Potency
1,CC(C)COC(=O)c1ccc(N)cc1,"inconclusive: 1.54 µM [cytotoxic, partial curve, poor fit]"
2,C[C@H](Cn1cnc2c(N)ncnc21)OCP(=O)(O)O,"inconclusive: 42.9 µM [cytotoxic, single point]"
3,CC(C)N(CC[C@H](c1ccccc1)c1cc(CO)ccc1O)C(C)C,"inconclusive: 42.9 µM [cytotoxic, partial curve, poor fit]"
4,Nc1nc(N)c2nc(CNc3ccc(C(=O)NC(CCC(=O)O)C(=O)O)cc3)cnc2n1 (stereo not given),"inconclusive: 30.4 µM [cytotoxic, single point]"
5,COc1ccc(-c2oc3c(CC=C(C)C)c(O)cc(O)c3c(=O)c2O)cc1,"inconclusive: 24.1 µM [cytotoxic, partial curve]"
6,NC(=O)C(=O)N/N=C/c1ccc([N+](=O)[O-])o1,"inconclusive: 38.6 µM [cytotoxic, single point]"
7,Nc1c2ccccc2nc2ccccc12,active: 9.7 µM
8,CCOc1ccccc1N=Nc1c(C)[nH]n(-c2nc(-c3ccccc3)cs2)c1=O,"inconclusive: 6.81 µM [cytotoxic, partial curve]"
9,O=S(=O)(O)c1ccc2nc(-c3ccccc3)[nH]c2c1,"inconclusive: 8.64 µM [cytotoxic, partial curve]"
10,CC[C@]1(O)C[C@@H]2CN(CCc3c([nH]c4ccccc34)[C@@](C(=O)OC)(c3cc4c(cc3OC)N(C)[C@H]3[C@@](O)(C(=O)OC)[C@H](OC(C)=O)[C@]5(CC)C=CCN6CC[C@]43[C@@H]65)C2)C1,"inconclusive: 5.45 µM [cytotoxic, partial curve, poor fit] and inconclusive: 122 nM [cytotoxic, full curve, poor fit]"
11,O=[N+]([O-])c1ccc(O)c2ncccc12,active: 3.44 µM
12,CCCCC(=O)O[C@]1(C(=O)CO)CC[C@H]2[C@@H]3CCC4=CC(=O)CC[C@]4(C)[C@H]3[C@@H](O)C[C@@]21C,inactive
13,COc1cccc2c1C(=O)c1c(O)c3c(c(O)c1C2=O)C[C@@](O)(C(=O)CO)C[C@H]3O[C@H]1C[C@H](N)[C@H](O)[C@H](C)O1,active: 0.242 µM
14,Cc1ncc(-c2ccnc(Nc3ccc(S(C)(=O)=O)cc3)n2)n1C(C)C,"inconclusive: 5.41 µM [cytotoxic, full curve]"
15,CNCCCC1c2ccccc2C=Cc2ccccc21,"inconclusive: 43.3 µM [cytotoxic, single point]"
16,CCN(CCCCOC(=O)c1ccc(OC)c(OC)c1)C(C)Cc1ccc(OC)cc1 (stereo not given),"inconclusive: 38.6 µM [cytotoxic, single point]"
17,Oc1cc(-c2nc(-c3ccccc3)[nH]c2-c2ccncc2)ccc1Cl,active: 19.2 µM
18,CCN(CC)C(=O)N1CCN(C)CC1,inactive
19,CN(C)C(=S)SC(=S)N(C)C,active: 1.94 µM
20,Nc1ccc(C(=O)Nc2ccccc2N)cc1,"inconclusive: 30.7 µM [cytotoxic, partial curve, poor fit]"
